# Experimental data from PubChem BioAssay AID652104 (National Center for Advancing Translational Sciences (NCATS), 2013).
# The whole screen tested about 410,000 compounds, of which about 7,200 (1.8%) were called active. This list was built around the results that the source calls inconclusive (neither active nor inactive); the mix of calls is not that of the screen. Calls come from the whole dose curve; as a rule, active = well fitted activation curve with a large enough effect; inconclusive = small, poorly fitted or top-dose-only effect, or another doubt; inactive = no such curve, though single readings can be large or run the other way. Potencies of inconclusive entries are left out as doubtful fits.
# Assay: qHTS of TDP-43 Inhibitors; note: nearly all actives have a fitted effect of over 50% in size
# Details: TDP-43 expressing yeast growth rescue, BacTiter-Glo, 24 h; series mostly up to 46.1 µM
# Summary of the method: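 Yeast cells expressing TDP-43 under galactose induction are exposed to compounds for 24 hr at 30 deg C. BacTiter-Glo luminescence measures growth, so protective compounds score as activators.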
# Potency is the fitted concentration of half-maximal effect; tags give direction and shape of the fitted curve.
row,Structure (SMILES),Potency
1,O=C(OCC12CC3CC(CC(C3)C1)C2)c1ccc(NCc2cc(O)ccc2O)cc1,"inconclusive [activator, partial curve]"
2,CCOC(=O)C1(C)CCCN1C(=O)c1ccc(C(F)(F)F)nc1C (stereo not given),inactive
3,CC1Cc2ccccc2N1C(=O)CCS(=O)(=O)c1ccc2c(c1)NC(=O)CS2 (stereo not given),"inconclusive [activator, single point]"
4,COc1ccccc1C(=O)NNC(=O)C(=O)Nc1cccc(Cl)c1C,active: 11.2 µM
5,CN1CCN(C(=S)SCC(=O)N2CCCc3ccccc32)CC1,inactive
6,Cc1ccc(Cl)cc1N1CCN(C(=O)c2noc(C)c2[N+](=O)[O-])CC1,active: 12.6 µM
7,Nn1c(Cc2cccc3ccccc23)nnc1SCc1c(F)cccc1Cl,inactive
8,O=C(Nc1nc(-c2ccccc2)ns1)c1cccs1,inactive
9,COc1ccc(Cl)cc1CSc1ncn[nH]1,"inconclusive [activator, single point]"
10,CCC(c1nnnn1-c1ccc2c(c1)OCCO2)N1CCN(C(=O)C2CCCO2)CC1 (stereo not given),"inconclusive [activator, partial curve, poor fit]"
11,COc1ccc(C)cc1NC(=O)C1CCN(S(=O)(=O)c2ccc3c(c2)C(C)(C)C(=O)N3C)CC1,"inconclusive [activator, partial curve, poor fit]"
12,COC(=O)c1ccccc1-c1ccc(/C=N/Nc2nc(N3CCCC3)nc(N3CCCC3)n2)o1,"inconclusive [activator, partial curve]"
13,O=C(NCc1ccccn1)C1Nc2ccc(OC(F)(F)F)cc2C2C=CCC12 (stereo not given),active: 17.8 µM
14,Cc1cccc(C)c1OCc1cc(=O)n2c3c(sc2n1)CCCC3,active: 35.5 µM
15,CC(C)CC(=O)Nc1cc(-c2ccccc2F)nn1-c1ccccc1,inactive
16,COc1ccc(-n2cc(-c3ccccc3)c3c(NC4CCCC4)ncnc32)cc1,active: 22.4 µM
17,COC(=O)c1ccc(-n2c(C)cc(C(=O)CSc3cccc[n+]3[O-])c2C)cc1,active: 14.1 µM
18,O=C(O)Cc1ccc(S(=O)(=O)N2CCCC2)s1,inactive
19,CCCCC(CC)C(=O)Nc1ccc(C#N)cc1 (stereo not given),"inconclusive [activator, partial curve]"
20,COc1ccc2cc(C(c3nnnn3CC3CCCO3)N3CCOCC3)c(=O)[nH]c2c1 (stereo not given),inactive
21,Cc1cc(C)nc(SC/C=C/c2ccccc2)n1,"inconclusive [activator, partial curve]"
22,COc1ccc(NCN2C(=O)C3C4C=CC(C4)C3C2=O)cc1 (stereo not given),"inconclusive [activator, single point]"
23,N#Cc1c(N2CCN(C(=O)c3ccccc3Cl)CC2)nc(-c2ccccc2)c2c1CCCC2,"inconclusive [activator, single point]"
24,CCOC1=C2[C@H](c3ccc(CC)cc3)N(S(=O)(=O)c3ccc(C)cc3)C[C@H]2C(C#N)(C#N)C(C#N)(C#N)C1,"inconclusive [activator, single point]"

row,Structure (SMILES),Potency
1,CC(=O)c1ccc(NS(=O)(=O)c2ccc(-c3cnc(C4CC4)o3)cc2)cc1,"inconclusive [activator, partial curve, poor fit]"
2,O=C1CC(N2CCCc3ccccc32)C(=O)N1c1ccccc1Cl (stereo not given),"inconclusive [activator, single point]"
3,CC1=C(C(=O)N(C(C)C)C(C)C)CC(CC(=O)NCC2CCCCC2)C(=O)N1Cc1ccc(C(C)(C)C)cc1 (stereo not given),active: 37.2 µM
4,O=C(NC1CCCC1)C1c2ccccc2OCC(=O)N1Cc1ccccn1 (stereo not given),"inconclusive [activator, full curve, poor fit]"
5,Cc1nc(Sc2ccc(Cl)cc2)c(C#N)c(C)c1[N+](=O)[O-],"inconclusive [activator, single point]"
6,Cc1cc(/C=N/NC(N)=S)c(C)n1-c1ccc(Br)cc1,"inconclusive [activator, partial curve]"
7,COC(=O)c1c(NC(=O)CN2CCC3(O)CCCCC3C2c2ccccc2OC)sc(C)c1C (stereo not given),"inconclusive [activator, partial curve]"
8,Nc1ccc2nc(-c3ccc(-c4nc5ccc(N)cc5[nH]4)cc3)[nH]c2c1,active: 14.1 µM
9,Cc1ccccc1OCCC(=O)N1CCN(S(=O)(=O)c2ccccc2F)CC1,"inconclusive [activator, partial curve]"
10,O=C(c1ccc(Cl)c(S(=O)(=O)N2CCCC2)c1)N1CCN(c2ccccc2)CC1,"inconclusive [activator, single point]"
11,CCCCN1C(C(=O)Nc2cc(C)on2)=C(O)c2ccccc2S1(=O)=O,inactive
12,COC(=O)c1ccccc1NC(=O)c1ccc2c(c1)CC(C)O2 (stereo not given),active: 12.6 µM
13,Cc1cccc(C)c1NC(=O)CN(C)C(=O)c1cccc(NS(=O)(=O)c2ccccc2)c1,inactive
14,Cc1noc(C)c1-c1ccc(C(=O)Nc2ccc(C(C)C)cc2)c2occc12,"inconclusive [activator, full curve, poor fit]"
15,Cn1c(-c2ccccc2)cccc1=O,inactive
16,COCCNC(=O)CSc1nc(-c2ccccc2)[nH]c1-c1ccc(OC)cc1,inactive
17,CCOC(=O)C1CCN(c2nc(-c3ccccc3)nc3c2oc2ccccc23)CC1,"inconclusive [activator, single point]"
18,COCc1nnc(NC(=O)c2cc(Cl)ccc2OC)s1,inactive
19,O=C(Nc1ccccc1Sc1ccccc1)c1ccccc1,active: 11.2 µM
20,Cc1ccc(NC(=O)c2cccc(S(=O)(=O)N3CCCc4ccccc43)c2)nc1,"inconclusive [activator, single point]"
21,CCc1ccc(NCc2cc3cc(OC)c(OC)cc3n(CC(=O)Nc3cc(C)ccc3C)c2=O)cc1,inactive
22,O=C(Nc1nc2ccccc2s1)C1=NN(c2ccccc2)C(=O)CC1,"inconclusive [activator, partial curve]"
23,C=CCOC(=O)c1cn(CC)c2nc(C)ccc2c1=O,"inconclusive [activator, single point]"
24,COc1ccc(OCc2cc(C(=O)NCCCc3ccccc3)no2)c(Cl)c1,"inconclusive [activator, partial curve, poor fit]"

row,Structure (SMILES),Potency
1,CO/N=C/c1ccc(N2CCN(C(=O)c3ccc(Cl)cc3Cl)CC2)c([N+](=O)[O-])c1,"inconclusive [activator, single point]"
2,COc1ccc(CNS(=O)(=O)c2ccc(F)cc2Br)cc1,"inconclusive [activator, partial curve, poor fit]"
3,Cc1[nH]c2ccccc2c1[C@H]1[C@@H](CC#N)C1(C)C,"inconclusive [activator, single point]"
4,COc1ccc(N2CCN(C(=O)c3cc(C4CC4)nn3-c3ccccc3)CC2)cc1,"inconclusive [activator, single point]"
5,Nc1sc(Cc2ccccc2)cc1C(=O)NC1CCCCC1,"inconclusive [activator, partial curve]"
6,O=S1(=O)CCOC[C@H](c2ccccc2)N1Cc1ccccc1F,"inconclusive [activator, single point]"
7,C=CCNc1nc(Nc2ccc(Cl)cc2)nc(OC)n1,active: 35.5 µM
8,COC(=O)Cn1c(=NC(=O)c2nc3ccccc3s2)sc2cc(S(N)(=O)=O)ccc21,inactive
9,O=C(Nc1ccccc1)N(Cc1ccc(F)cc1)c1ccccn1,"inconclusive [activator, single point]"
10,CC1=C(C(=O)N2CCN(c3cccc(C)c3C)CC2)C2(CCCCC2)OC1=O,"inconclusive [activator, partial curve]"
11,CN(C)CCCNC(=O)C(=O)Nc1cc2c3c(c1)CCC(=O)N3CCC2,"inconclusive [activator, single point]"
12,CCOC(=O)c1[nH]c(C)c(C(=O)OCC(=O)NC2CCS(=O)(=O)C2)c1C (stereo not given),inactive
13,CCc1ccc(CCC(=O)Nc2ccc(Cl)cc2)o1,"inconclusive [activator, full curve]"
14,CCOC(=O)CN1C(=O)S/C(=C/c2cc(C)n(-c3ccccn3)c2C)C1=O,"inconclusive [activator, single point]"
15,O=C(Cn1c(=O)nc(-c2ccccc2)c2ccccc21)NCc1ccc(F)cc1,inactive
16,O=C(CCSc1ccc(Cl)cc1)N1CCN(S(=O)(=O)c2ccccc2)CC1,"inconclusive [activator, single point]"
17,CCOC(=O)c1ccc(Nc2nc(-c3cccnc3)nc3ccccc23)cc1,"inconclusive [activator, partial curve]"
18,COc1cc2oc(=O)cc(CN3CCN(c4ccccc4OC)CC3)c2cc1Cl,"inconclusive [activator, full curve, poor fit]"
19,Cc1ccc(/C=N/NC(=O)c2cc3c(ccc4ccccc43)o2)o1,"inconclusive [activator, partial curve, poor fit]"
20,O=C(C1CC1)N1CCN(c2nc3c(Cl)cccc3s2)CC1,"inconclusive [activator, partial curve]"
21,O=C(NC(=S)Nc1cccc2c(O)cccc12)c1cccc(Br)c1,"inconclusive [activator, single point]"
22,CCOC(=O)c1ccc(NC(=O)c2csnn2)cc1,inactive
